Results as given in the supplement of paper PMC10126150.
Sequences with one replicate were seen in a single cluster, so their values are uncertain.

test system: ATP; assay: switch fluorescence ratio, 500 uM ATP over buffer (Cy3 cluster intensity, sum of 5 cycles each) (fold (ratio)); higher = stronger signal-on switching upon ATP binding; sequences stand for … in TCGTCGGCAGCGTCAGATGTGTATAAGAGACAGTTTTTTTTTTTTTTTTTTTTTTTTT…TC; settings: aptamer strand: ATP DNA aptamer (quencher-CACCTGGGGGAGTATTGCGGAGGAAGG + anchor), 100 nM annealed; ATP concentration: 500 uM; one replicate
Outline: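 The fluorescence ratio divides summed target-cycle Cy3 intensity by summed buffer-cycle Cy3 intensity for each cluster and is averaged per switch-domain sequence. Cy3-labelled switching-strand clusters on a modified Illumina MiSeq flow-cell were annealed to 100 nM quencher-labelled ATP aptamer, then imaged in selection buffer and again after 15 min with 500 uM ATP at 22 °C. Five such cycles were run, with NaOH stripping and re-annealing between them, and clusters outside 100-1000 RFU were excluded.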
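Note: ATP exposure 15 min at 22 °C before imaging.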

Row | Sequence | switch fluorescence ratio
1 | AGTAGAAGTA | 1.03
2 | AGTAGACGGA | 0.985
3 | AGTAGAGGAG | 0.95
4 | AGTAGAGTCA | 1.01
5 | AGTAGATAGA | 0.996
6 | AGTAGCTTC | 1.03
7 | AGTAGGGTCG | 0.998
8 | AGTAGGGTCT | 0.974
9 | AGTAGGTATC | 0.989
10 | AGTAGTGCA | 1.03
11 | AGTATAAATG | 0.975
12 | AGTATAATGA | 0.992
13 | AGTATCGTTT | 1.01
14 | AGTATGGATG | 0.985
15 | AGTATGGGGC | 1.02
16 | AGTATTTGTC | 1.08
17 | AGTCAAGTGA | 1.02
18 | AGTCACGTGC | 1.11
19 | AGTCAGATGA | 1.05
20 | AGTCAGCCGG | 1.02
21 | AGTCATGCGC | 1.06
22 | AGTCCCAGGG | 1.24
23 | AGTCCGCCCG | 1.01
24 | AGTCCGTTCC | 1.32
25 | AGTCCTATAT | 1.01
26 | AGTCGCTGTT | 1.02

Row | Sequence | switch fluorescence ratio
27 | AGTCGTTTGA | 1.06
28 | AGTCTAGCCC | 1.01
29 | AGTCTCTGCT | 1
30 | AGTCTGAGCC | 0.967
31 | AGTCTTAGGC | 1.02
32 | AGTCTTGATG | 0.954
33 | AGTGAAAAAT | 0.973
34 | AGTGAAACGG | 1.03
35 | AGTGAAATGA | 0.976
36 | AGTGAATACC | 1.07
37 | AGTGACAGCA | 1.01
38 | AGTGAGCCTA | 1.01
39 | AGTGAGTATA | 1.02
40 | AGTGAGTGAG | 1.03
41 | AGTGATGCCG | 1.06
42 | AGTGATTATC | 1.02
43 | AGTGCAAA | 1
44 | AGTGCGACGG | 1.03
45 | AGTGCGCTTA | 0.965
46 | AGTGCGGATG | 0.967
47 | AGTGCTACCA | 1
48 | AGTGCTATGG | 1
49 | AGTGCTCGAG | 0.971
50 | AGTGCTTTGG | 1.03
51 | AGTGGAACCA | 0.997
52 | AGTGGAGAGG | 1.05

Row | Sequence | switch fluorescence ratio
53 | AGTGGCTGTG | 0.973
54 | AGTGGGCAGC | 0.991
55 | AGTGGGGTCT | 1
56 | AGTGGGTGGA | 1.03
57 | AGTGGTAGAA | 1.01
58 | AGTGGTAGCC | 0.994
59 | AGTGTAAGGT | 0.998
60 | AGTGTACGCT | 0.981
61 | AGTGTATTCA | 1.12
62 | AGTGTCAAGG | 0.997
63 | AGTGTTATAA | 0.977
64 | AGTGTTCTTT | 0.984
65 | AGTGTTGAAC | 1.08
66 | AGTGTTGCCA | 0.984
67 | AGTTAAAGAC | 1.06
68 | AGTTAGAAGT | 0.986
69 | AGTTAGACCT | 1.31
70 | AGTTAGTAGA | 0.998
71 | AGTTAGTGTC | 0.996
72 | AGTTATCGAG | 0.966
73 | AGTTATCGGT | 0.999
74 | AGTTCAATTT | 0.982
75 | AGTTCAGCGT | 0.953
76 | AGTTCATGAC | 1.02
77 | AGTTCCATCA | 0.992
78 | AGTTCCGATG | 1.44

Row | Sequence | switch fluorescence ratio
79 | AGTTCGGGCT | 0.978
80 | AGTTCGTAGG | 0.993
81 | AGTTCGTGC | 1.01
82 | AGTTCGTTGG | 0.999
83 | AGTTCTGATG | 1.01
84 | AGTTCTTTTT | 1.04
85 | AGTTGAATGC | 1.04
86 | AGTTGCCAG | 1.04
87 | AGTTGGACG | 1.05
88 | AGTTGGGGCA | 1.04
89 | AGTTGGTCTT | 1.01
90 | AGTTGGTTTA | 1.04
91 | AGTTGTAGAC | 1.06
92 | AGTTTACACT | 1.03
93 | AGTTTACTTC | 1.01
94 | AGTTTATGGA | 0.987
95 | AGTTTATGGT | 0.973
96 | AGTTTGAGTG | 0.963
97 | AGTTTGTAAA | 0.986
98 | AGTTTTAATC | 0.988
99 | AGTTTTCGCC | 1.02
100 | AGTTTTTCTT | 1.01
101 | ATAAAATCA | 0.968
102 | ATAAAATCCT | 1.22
103 | ATAAAATTAC | 0.983
104 | ATAAACACTT | 1.4

Row | Sequence | switch fluorescence ratio
105 | ATAAACAGTG | 0.999
106 | ATAAACTCGC | 0.996
107 | ATAAACTGCT | 0.951
108 | ATAAAGAAAC | 1.01
109 | ATAAAGATCA | 1.01
110 | ATAAAGCGAC | 1.07
111 | ATAAAGTTTG | 0.945
112 | ATAAATCCTG | 0.999
113 | ATAACAATGT | 0.982
114 | ATAACAGATT | 0.97
115 | ATAACCTAAA | 1.02
116 | ATAACTCTAT | 1.05
117 | ATAACTGTAG | 1.08
118 | ATAAGACTAT | 0.974
119 | ATAAGGAAAT | 1.04
120 | ATAAGGGGCG | 1.01
121 | ATAAGGTTAT | 0.957
122 | ATAAGTATTT | 0.987
123 | ATAAGTCAGG | 0.965
124 | ATAAGTGTA | 1.01
125 | ATAAGTTGG | 1.01
126 | ATAATAAGAA | 0.993
127 | ATAATCCCTT | 1.01
128 | ATAATCGCCA | 1.06
129 | ATAATCTGTA | 0.974
130 | ATAATGCACA | 1.07

Row | Sequence | switch fluorescence ratio
131 | ATAATGGGCT | 1
132 | ATAATGGTCG | 1.05
133 | ATAATTAACT | 1.01
134 | ATAATTAGTG | 1.01
135 | ATAATTTCT | 1.06
136 | ATAATTTTCG | 1.08
137 | ATAATTTTGT | 0.998
138 | ATACAACTAT | 1.02
139 | ATACAAGCAA | 1.52
140 | ATACAATAAA | 0.96
141 | ATACAGAT | 1.02
142 | ATACATCGAA | 1.03
143 | ATACCAACTC | 1.15
144 | ATACCATCAC | 1.17
145 | ATACCGGCTC | 0.972
146 | ATACCGGGGG | 1.01
147 | ATACCTCGAA | 1.01
148 | ATACCTGAT | 1.08
149 | ATACGCGCCG | 1.09
150 | ATACGCGTTT | 1.05
151 | ATACGGGAG | 1.01
152 | ATACGGGGGA | 0.991
153 | ATACGGGTAA | 0.963
154 | ATACGGTAAC | 1.15
155 | ATACTAACAT | 1.2
156 | ATACTACC | 1.38

Row | Sequence | switch fluorescence ratio
157 | ATACTCCCTC | 2.76
158 | ATACTCCGG | 1.32
159 | ATACTGGGCA | 1.07
160 | ATACTTCGGC | 0.888
161 | ATACTTGCAT | 1
162 | ATACTTTATA | 1.03
163 | ATACTTTCTG | 1.01
164 | ATACTTTGGG | 0.973
165 | ATAGAAAAGA | 0.989
166 | ATAGAACCG | 1.07
167 | ATAGACCGTG | 0.982
168 | ATAGACGA | 1
169 | ATAGAGTCAC | 1.01
170 | ATAGATGACC | 1.04
171 | ATAGCAAAGC | 1.09
172 | ATAGCAGTGA | 1.03
173 | ATAGCCCCCG | 1.02
174 | ATAGCCCGGC | 1.01
175 | ATAGCGGCAC | 1.27
176 | ATAGCGGGTG | 1
177 | ATAGCGTCGT | 1.02
178 | ATAGCGTTTT | 0.975
179 | ATAGCTGCGA | 1.02
180 | ATAGGAAGAA | 0.999
181 | ATAGGACCCG | 1.07
182 | ATAGGATGCT | 0.988

Row | Sequence | switch fluorescence ratio
183 | ATAGGCTCTA | 1.01
184 | ATAGGGCGGA | 1.02
185 | ATAGGGTCCT | 1.04
186 | ATAGGTCTAA | 1
187 | ATAGTAAATT | 0.993
188 | ATAGTAGAAC | 1.02
189 | ATAGTCCGCA | 2.59
190 | ATAGTCCTTT | 0.968
191 | ATAGTCGAAC | 1.01
192 | ATAGTTCAC | 0.987
193 | ATAGTTCGCA | 1.01
194 | ATAGTTGCGA | 1.03
195 | ATAGTTTCAG | 1.01
196 | ATAGTTTTGT | 1.04
197 | ATATAAAGCA | 0.971
198 | ATATAATGGG | 0.977
199 | ATATACATGA | 1.09
200 | ATATAGAT | 0.984
201 | ATATAGTCA | 0.987
